Data on 56 sequences can be found in the supplement of paper PMC11417369.

The other results are listed elsewhere or left out.

For the experiment, the system named is PfAP2-HC AP2 domain (GST-tagged). The experiment can be described thus: gcPBM binding intensity (ln(normalized median fluorescence intensity)); higher = stronger DNA binding. An outline of the steps: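 GST-tagged P. falciparum DNA-binding domains, expressed in E. coli (about 25 μg on average), were applied for 1 h to an Agilent 4 × 180k array of primer-extended double-stranded 36-bp intergenic genomic probes plus negative controls. The binding buffer was 1× PBS with 1% milk, 0.2 mg/ml BSA, 0.5% salmon testes DNA and 0.03% Triton X-100. Bound protein was detected with Alexa488 anti-GST antibody and scanned at 488 nm. Binding intensity is the highest Masliner-normalised natural-log median intensity across replicate spots of either probe orientation.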
With “AATTTATTATTTGTATGTACTCATATGATTCACTTA [XGTACX_site2797]”, the “gcPBM binding intensity (ln)” value is 9.69. The figure for “TATTAATTTTTAAACATAATTTTTCGTATAATATAT [CACACA_negctrl_site762]” is 9.52. For the sequence “GAGATAAAATAAAACACACACATATATTTATATAAC [CACACA_site7098]”, the “gcPBM binding intensity (ln)” value came to 10.9. The figure for “TTTACTTTCTTATTTTCACACATTTAAAAAAAAATT [CACACA_site5949]” is 9.5.

In the case of “ACATCTAATTTGTATACACACAATAATAAATGGTGA [CACACA_site824]”, the “gcPBM binding intensity (ln)” value amounted to 9.67.

As to “TATATATATTTATAATGTACATATTTTTTTTTATTT [XGTACX_site4761]”, the “gcPBM binding intensity (ln)” value came to 9.81. Consider “TTGTATATATGACTTTTTTATATTTCAATTTTGTGC [CACACA_negctrl_site296]”, for which the “gcPBM binding intensity (ln)” value is 9.57.

For the sequence “AAGGAGATAATTTATTGTACATATAATAAATGAACA [XGTACX_site6252]”, the “gcPBM binding intensity (ln)” value turned out to be 9.62.

As for “TCTTACAAAAAAAAAAAAAAATAAAATAAAATATAT [CACACA_negctrl_site1575]”, the “gcPBM binding intensity (ln)” value is 9.32. In the case of “TTAATATTATGTTAAAGTACTTTATATATATATAAT [XGTACX_site2646]”, the “gcPBM binding intensity (ln)” value is 9.43. The figure for “ATCTTATATATACGTTGTACTACAGGATATGTCATA [XGTACX_site5734]” is 9.68; for “TTCATTTACCCTTATTAACACACAAAATATAATACG [CACACA_site8821]” it is 9.75. For “TGTATATTATAAGATAGTACATATATATAATATATA [XGTACX_site1297]” the value was 9.48. As for “ATAAATATCATATATATACACACGTAATACATAATA [CACACA_site4001]”, the “gcPBM binding intensity (ln)” value was determined as 9.84. For the sequence “TTACTTGTTTATTTTATTTTTTTTTTTTTTTTGTTA [TGCATGCA_negctrl_site266]”, the “gcPBM binding intensity (ln)” value is 9.39. For the sequence “AGTGAGAAATACATAATAATACATTATGTGCATATT [XGTACX_negctrl_site247]”, the “gcPBM binding intensity (ln)” value was found to be 9.75. For the sequence “AAGAATATTTTTTTCTGTACATATAATTTATATACG [XGTACX_site5801]”, the “gcPBM binding intensity (ln)” value was determined as 9.3. The figure for “GTACACATATATATATATATATATATATATATATTA [CACACA_negctrl_site1580]” is 9.7; for “ATATTAAGAATATATACACACATAAGTATTGTATAT [CACACA_site6110]” it is 9.84. For “TATTCGTGCAATAGTAGTACACTTATAAATTATTCT [XGTACX_site4899]” the value was 9.58; for “ATAAAATAAAATAAATGTACACGAAAAAAAATATTT [XGTACX_site3747]”, 10.1; for “GTTGGTAGATTTATTTGTACATATGTATCATATTAT [XGTACX_site7135]”, 9.93. As to “AAAAATTTATTTTGTTTTTTAAGATTTTTTTTTTTT [CACACA_negctrl_site1210]”, the “gcPBM binding intensity (ln)” value worked out at 8.89.

With “TAATTACAAAAACATACACACAAAAAAAAAAAAAAA [CACACA_site3782]”, the “gcPBM binding intensity (ln)” value came out at 9.67.

“ACATACATATATATACGTACATATATATTTATATAT [XGTACX_site5799]”: the “gcPBM binding intensity (ln)” value stood at 9.88. The figure for “ATTCTAAATATCAGTGCACACATTTCTACGCAAAGT [CACACA_site474]” is 9.87; for “GTTGTTATATAAAATTGTACATAAAAAACAAAATAT [XGTACX_site5313]” it is 9.66; for “TAAAATTATTAATGAGTGCATTATAAAATCTATATA [GTGCAC_site9493]” it is 9.36.

With “TTTTCTTTCTTTCAAACACACATTAATTTTATTCAT [CACACA_site2734]”, the “gcPBM binding intensity (ln)” value worked out at 9.79.

“ATAAATGGCTATAGCATATTGTATATGTGATTATAA [CACACA_negctrl_site948]”: the “gcPBM binding intensity (ln)” value was 10. For “ATAATTGTTTAAAGGTGTACAATACATATATTTTAA [XGTACX_site3648]” the value was 9.64; for “TCATATATTATATATTGTACAAAATAATAAGTATTT [XGTACX_site3987]”, 9.44; for “ATGCAATTATATAGTAGTACAAATTTATAAATATAC [XGTACX_site4869]”, 9.76. For the sequence “ATTATACACCCGCGCACACACAACAAAAAAAAAAAA [CACACA_site5871]”, the “gcPBM binding intensity (ln)” value was 11.1. For “ATATATATATATATGGGTACGTAAAAATATAATAAA [XGTACX_site4036]”, the “gcPBM binding intensity (ln)” value was 9.99.

In the case of “ATGAAAATATTTAAAAGTACAGAAATATAAAACCTT [XGTACX_site403]”, the “gcPBM binding intensity (ln)” value was determined as 9.82. The figure for “CACAAATATACAAATACACACAAATATACACATATA [CACACA_site7176]” is 10.1.

“AAAATATTTATCATTTGTACTTAGATGTAAACTTGA [XGTACX_site1778]”: the “gcPBM binding intensity (ln)” value is 9.43.

In the case of “TATAAAATATAAATAAATAAATAAATATATATATAT [TGCATGCA_negctrl_site448]”, the “gcPBM binding intensity (ln)” value worked out at 9.66. For “TATTTTATACACTTGCTAAAACATTAACACATATGT [CACACA_negctrl_site1818]” the value was 9.83; for “TATATATATATATATTGTACTAAATCATTTAAATGA [XGTACX_site8016]”, 9.39. For “AAAAAACAAAAACACACGCACACAAAAAAAAAAAAA [CACACA_site802]” the value was 10.2. The figure for “ACCTATATAAATTATACACACAAATATAAATATATA [CACACA_site2843]” is 9.79. As to “AATTATATATAACGTAGTACATATTATAAACCACGT [XGTACX_site8816]”, the “gcPBM binding intensity (ln)” value was 9.76. On to “TGTCATAAAACCGTTTGTACATATTAATAGACACCT [XGTACX_site4520]”, for which the “gcPBM binding intensity (ln)” value is 9.54. For “TTGTTATTCCACCGTTGTACAGTTATATACATACAC [XGTACX_site8296]” the value was 9.8; for “TATAATAATAATGATAGTACGTATGAGTTCAAGAAA [XGTACX_site4918]”, 9.76; for “ATATTCCTTTAATATTGTACTATTTTTTTCCTTATA [XGTACX_site8659]”, 9.87. The figure for “TATAATTTTCTTAGTAGTACATTTTAAATCTACTAC [XGTACX_site2621]” is 9.51. Take “TGTATCCACATATGTACACACATATATCTGTATATG [CACACA_site5668]”: the “gcPBM binding intensity (ln)” value was 9.9.

As for ACTAATAACAAAAGCTTGCACTTTTTTTTTCCTAAT, the “gcPBM binding intensity (ln)” value was found to be 9.51. The figure for “TATGTACAAATATGTACACACACACCGATATATATA [CACACA_site4487]” is 10.1.

For the sequence “AAAAAAAAAAAAAAAAGTACAAAAATTATATTAAGA [XGTACX_site4255]”, the “gcPBM binding intensity (ln)” value was 9.59. The figure for “ATATAAGATTACAAAAATTATGTGTAAATATTTAAT [XGTACX_negctrl_site448]” is 9.69; for “AAAAAAATTACATATCCATTTTAACATAATAAATAG [GTGCAC_negctrl_site618]” it is 9.44; for “ATTCTATTCTCCTTCACACACAAAAATATTTCATCA [CACACA_site2360]” it is 10.1.
